The values that follow come from PubChem BioAssay (NCI).

Where “and” joins values, the source holds several entries; their conditions need not be identical. Equal entries are not always repeated.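 In this assay, cells in 96-well plates receive the compound at five concentrations for 48 hours. Endpoints are linearly interpolated between the surrounding concentrations. Here, GI50 denotes the concentration required for 50% inhibition of growth. TGI: total growth inhibition.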

The subject of this experiment is NCI-H322M lung. As to the kind of experiment: growth of human tumour cells (NCI), 48 h.
In turn, `CN(C)Cc1cc(C(=O)/C=C/c2c(Cl)cccc2Cl)cc(CN(C)C)c1O` registered a TGI of 23.8 µM.
In the case of `O=C(/C=C/c1c(O)c2ccccc2[nH]c1=O)CC(=O)C(=O)Nc1cccc(O)c1`, the TGI is over 100 µM.
For the compound `O=c1[nH]c2nccn2c(Cl)c1Br`, the TGI is 45.2 µM.
In the case of `CCCCC1(OC(=O)CCC(=O)O)CCC2(CCC(C)C(C/C=C(C)/C=C/C(O)C(C)/C=C/C(=O)O)O2)OC1CC/C(C)=C/C(=O)O` (stereo not drawn), the TGI came to 13 µM.
Still for that read-out and setting: the figure for `COc1ccc(OC)c2c(=O)cc(-c3ccccc3)[nH]c12` is over 100 µM; for `C=C1C(C2(C)C=CC(=O)OC3(C)COC(=O)CC32)C(OC=O)C(OC(=O)C(O)C(C)CC)C2(C)C(c3ccoc3)CC(OC(C)=O)C12O` (stereo not drawn) it is over 100 µM.
Turning to `C/C(=C\c1ccn(-c2ccc(N)cc2C(F)(F)F)n1)[C@@H]1C[C@@H]2O[C@]2(C)CCC[C@H](C)[C@H](O)[C@@H](C)C(=O)C(C)(C)[C@@H](O)CC(=O)O1`, the GI50 is 0.681 µM and the TGI is over 11.1 µM.
Turning to `CNC(=O)c1ccc(Nc2nc(OC3CCCC3)c3c(-c4ccc5nc(C)oc5c4)c[nH]c3n2)c(OC)c1`, the GI50 is 11 µM and the TGI was over 100 µM.
On to `CCOC(=O)C1C(C(C)C)C2(C#N)C(=N)OC1(C)C2(C#N)C#N` (stereo not drawn), for which the TGI is over 100 µM.
As to `Cc1cc(Nc2ncc(Cl)c(Nc3ccccc3S(=O)(=O)C(C)C)n2)c(OC(C)C)cc1C1CCNCC1`, the GI50 is 1.13 µM and the TGI turned out to be 2.35 µM.
`Cc1ccc(NC(=O)/C(=N/NC(=O)CC#N)C2C(=O)N(c3ccccc3)N=C2N)cc1C` (stereo not drawn) returned a TGI of over 100 µM.
Turning to `CC(=O)NC(Cc1c[nH]c2ccccc12)C(=O)O` (stereo not drawn), the TGI is over 100 µM.
For `COc1cc(C(=O)O)ccc1NC(=O)[C@@H]1N[C@@H](CC(C)(C)C)[C@](C#N)(c2ccc(Cl)cc2F)[C@H]1c1cccc(Cl)c1F`, the GI50 was 6.72 µM and the TGI worked out at 19.3 µM.
Take `COc1ccc(/C(Cl)=C(\C=O)c2cc(OC)c(OC)c(OC)c2)cc1OC`: the TGI is over 100 µM.
Consider `CCn1cc(C(=O)O)c(=O)c2cc(F)c(N3CCN(Cn4c(O)c(N=NC(=O)c5ccncc5)c5cc(Cl)ccc54)CC3)cc21`, for which the TGI is over 100 µM.
`C/C=C/CP(=O)(c1ccccc1)c1ccccc1` came in with a TGI of over 100 µM.
The same measure, in the same setting: the figure for `O=C(O/N=C1/CCC/C1=C\c1ccccc1)c1ccccc1` is over 100 µM.
Compound `Nc1nc(F)nc2c1ncn2C1OC(COP(=O)(O)O)C(O)C1O` (stereo not drawn) gave a TGI of 1100 µM.
Same read-out and setting: the figure for `CC1=C/C(=N\N(C)C)C(C(O)(C(F)(F)F)C(F)(F)F)C(C)(C)C1` (stereo not drawn) is over 100 µM.
In the case of `NC(=Nc1ccc(Cl)c(Cl)c1)c1ccccc1N`, the TGI is over 100 µM.
On the same count and under the same terms, the figure for `O=C(NN1C(=O)/C(=C/c2ccc(Cl)cc2)N=C1c1ccccc1)c1c(Cl)c(Cl)c(Cl)c(Cl)c1-c1nc2ccccc2[nH]1` is over 100 µM.
Take `Cc1cc(S(=O)(=O)/N=C(\N)n2nc(C)c(C)c2C)c(SCc2ccccc2)cc1Cl`: the GI50 is over 100 µM and the TGI is over 100 µM.
As to `O=c1oc2ccccc2c(O)c1C(c1ccc2ccccc2c1)c1c(O)c2ccccc2oc1=O`, the TGI is over 100 µM.
In the case of `O=S(=O)(NCCNc1cc(-c2cn(-c3ccccc3)nc2-c2cccc(O)c2)ccn1)c1ccc(F)cc1`, the GI50 is 3.48 µM and the TGI turned out to be 18.2 µM.
In turn, `O=C(CC1(O)C(=O)Nc2ccccc21)c1ccc(O)cc1O` (stereo not drawn) returned a TGI of over 100 µM.
As to `Fc1ccc(Nc2ccc3cc(OCCCN4CCOCC4)ccc3n2)cc1F`, the GI50 is 7.22 µM and the TGI was over 100 µM.
In turn, `CC1C(c2ccccc2)=CCON1c1ccccc1` (stereo not drawn) came in with a TGI of over 100 µM.
In turn, `Cc1ccc(S(=O)(=O)Oc2coc(CO)cc2=O)cc1` came in with a TGI of 30.7 µM.
Compound `Cc1c2c(cc3c1[nH]c1ccccc13)C(c1ccc(F)cc1)=NCC2` gave a TGI of 6.79 µM.
Still for that read-out and setting: the figure for `COc1cc(/C=C2\CCC(C)c3c2nc(N)c(C#N)c3-c2cc(OC)c(OC)c(OC)c2)cc(OC)c1OC` (stereo not drawn) is over 100 µM; for `NC(=S)N/N=C1\C(=O)N(c2cccc([N+](=O)[O-])c2)C(=O)C1C(=O)Nc1cccc([N+](=O)[O-])c1` (stereo not drawn) it is over 100 µM; for `Cn1cc(C(=O)/C(Cl)=C(\Cl)C(=O)O)c2ccccc21` it is over 100 µM.
`N#Cc1c(SCc2ccccc2)nc2[nH]c(=S)[nH]c(=S)c2c1-c1ccco1`: the GI50 is 27.6 µM and the TGI is over 100 µM.
Consider `CC(=O)[CH-]C(C)=O.CC(=O)[CH-]C(C)=O.CC(=O)[CH-]C(C)=O.[Cl-].[Hf+4]`, for which the GI50 was over 100 µM and the TGI was over 100 µM.
Consider `C[C@]12CC[C@@H]3c4ccc(OCC(=O)O)cc4CC[C@H]3[C@@H]1CCC2=O`, for which the TGI is over 100 µM.
Compound `CC(C)C1=CC(=O)C(C)(C2=NC(C)(C)CO2)c2ccccc21` (stereo not drawn) displayed a TGI of over 100 µM.
`Cc1ncc([N+](=O)[O-])n1CC(O)Cn1cnc([N+](=O)[O-])n1` (stereo not drawn): the TGI is over 100 µM.
Take `O=C(c1cccs1)c1c(C(F)(F)F)n([O-])c2cc(C(F)(F)F)ccc2[n+]1=O`: the GI50 was 1.98 µM and the TGI amounted to 4.02 µM.
In the case of `CC(=O)OCCC[C@@H]1C(=C(C)C)CCC2[C@@]1(C)CC[C@@]1(C)C[C@](C)(CCC=C(C)C)CC[C@]21C` (stereo partly drawn), the TGI was over 100 µM.
Turning to `CN(C)c1ccc2[nH]c(O)c(C=Nc3ccc(S(N)(=O)=O)cc3)c2c1`, the GI50 was over 25 µM and the TGI was over 25 µM.
Take `O=S(=O)([N-]c1nc2ccccc2nc1-[n+]1ccccc1)c1ccccc1`: the TGI is over 100 µM.
As to `COc1ccc(C2c3cc4c(cc3OC(O)(CO)C2C(=O)O)OCO4)c(OC)c1OC` (stereo not drawn) (tested in a mixture with another compound), the TGI was over 100 µM.
Turning to `CCN(CC)CCCN1C(=O)c2c(c(C)c3c(oc4cc(O)ccc43)c2C)C1=O`, the GI50 is 1.7 µM and the TGI was 3.11 µM.
`O=C1CC(n2cccc2)c2cc(Br)sc21` (stereo not drawn) registered a TGI of over 100 µM.
Turning to `N#CCc1[nH]nc2nc(SCc3ccccc3)nc(N3CCCCC3)c12`, the TGI is 36.9 µM.
In the case of `CC(=O)O[C@H]1C(=O)[C@@]2(C)[C@H]([C@H](OC(=O)c3ccccc3)[C@]3(O)C[C@H](OC(=O)[C@H](OC(=O)CCC(=O)OC4CCC(S/N=C(N)/N=C(\N)N(C)C)CC4)[C@@H](NC(=O)c4ccccc4)c4ccccc4)C(C)=C1C3(C)C)[C@]1(OC(C)=O)CO[C@@H]1C[C@@H]2O` (stereo partly drawn), the GI50 is 0.0272 µM and the TGI was over 50 µM.
With `CO[C@H]1C[C@@H]2CC[C@@H](C)[C@@](O)(O2)C(=O)C(=O)N2CCCC[C@H]2C(=O)O[C@H]([C@H](C)C[C@@H]2CC[C@@H](OC(=O)C(C)(CO)CO)[C@H](OC)C2)CC(=O)[C@H](C)/C=C(\C)[C@@H](O)[C@@H](OC)C(=O)[C@H](C)C[C@H](C)/C=C/C=C/C=C/1C`, the GI50 is 5.82 µM.
Take `O=C(n1[nH]c(=O)n(-c2ccc([N+](=O)[O-])cc2)c1=O)C(Cl)(Cl)Cl`: the TGI is over 75 µM.
`CC1=Cc2cc3[n-]c(cc4nc(cc5[n-]c(cc1n2)c(C)c5CCC(=O)O)C(CCC(=O)O)=C4C)cc3C.[Cu+2]`: the GI50 is over 71.3 µM and the TGI is over 100 µM.
As to `CC/C(=C/OC)P1(=O)OC(C)(C)CN1C(C)(C)C` (stereo not drawn), the TGI is over 100 µM.
Take `Nc1c(C(=O)Nc2cccc3ccccc23)sc2nc3c(cc12)CCCCC3`: the GI50 was 3.98 µM and the TGI was over 50 µM.
The compound `BrC12C3C4C5C(C(C43)C13OCCO3)C52` (stereo not drawn) gave a TGI of over 100 µM.
Same read-out and setting: the figure for `C1=Cc2nc1c(-c1ccccc1)c1ccc([n-]1)c(-c1ccccc1)c1nc(c(-c3ccccc3)c3ccc([n-]3)c2-c2ccccc2)C=C1.[Zn+2]` is over 100 µM; for `NC(=O)CC1(O)C=CC(=O)C=C1` it is over 100 µM; for `CN(C)c1cccc(-c2cc(=O)c3cc4c(cc3[nH]2)OCO4)c1` it is over 100 µM.
`Cc1nn(-c2ccccc2)c2nc3c(c(C)nn3-c3ccccc3)c(-c3ccccc3Br)c12` came in with a TGI of over 100 µM.
`C=C1C(=O)O[C@H]2[C@H]1CC/C(COC(=O)N[C@@H](Cc1c[nH]c3ccccc13)C(=O)OC)=C\CC[C@@]1(C)O[C@@H]21`: the GI50 was 5.39 µM and the TGI is 18 µM.
Turning to `C[C@]12CC[C@H]3[C@@H](CC=C4C[C@@H](O)CC[C@@]43C)[C@@H]1C/C(=C\c1cccc(OCCCn3ccnc3)c1)[C@@H]2O`, the GI50 was 17.1 µM and the TGI is 33.9 µM.
The matching figures for `O=C(/C=C/c1ccc2c(c1)OCO2)c1ccccc1`: 15.4 µM and 35 µM.
`Cc1cc2c(cc1C)[n+](=O)c(C(=O)c1cccs1)c(C(F)(F)F)n2[O-]`: the TGI was 4.26 µM and 9.45 µM.
`CC1=C([Se]CC(OC(=O)[C@@H](CSSC(C)(C)C)NC(=O)C(C)(C)C)C(=O)NCCCCCC(=O)OCc2ccccc2)C(=O)c2ccccc2C1=O` (stereo partly drawn): the GI50 was 0.397 µM and the TGI was found to be 2.29 µM.
As to `CCN(CC)CCN1CCN=c2c3cc(OC)ccc3n3cnc4ccc1c2c43`, the TGI came to 2.73 µM.
Turning to `CCCN1C(=O)/C(=C/c2ccc(O)cc2)SC1=Nc1ccccc1`, the GI50 is 19.1 µM and the TGI amounted to 35.7 µM.
The compound `COC(=O)CC1CN(C(=O)OCc2ccccc2)C(C)(C)O1` (stereo not drawn) yielded a TGI of over 100 µM.
`C/C(=N\[N+](C)(C)C)C(c1ccccc1)C1(c2ccccc2)C(c2ccccc2)=C1c1ccccc1` (stereo not drawn): the TGI is over 100 µM.
For the compound `CCC[C@H](Nc1nc(-c2ccc(NC(=O)NCC)c(OC)c2)ncc1C)c1cccnc1`, the GI50 was 0.0825 µM and the TGI was 46.2 µM.
In the same order, the values of `CCSc1nc(=S)[nH]c2[nH]ncc12` are over 100 µM and over 100 µM.
The compound `COC(=O)c1cccc(C)c1C1CN=NC12Cc1c(ccc(C)c1C)C2=O` (stereo not drawn) returned a TGI of over 100 µM.
For the compound `Cn1c(Cc2ccccc2)nc2cc3ccccc3cc21`, the GI50 was 23.2 µM and the TGI was over 100 µM.
On to `C/C=C/C/C=C/CCC(=O)C1OC1C(N)=O` (stereo not drawn), for which the TGI came to 34.5 µM.
As to `COc1ccc2c(c1)-c1c(c3ccccc3n1CCN1CCCCC1)CC2`, the TGI turned out to be 24.6 µM.
Consider `COC1(OC)C[C@H](C)[C@@]23O[C@]24c2cc(O)c5c(c2N[C@H]3C#C/C=C\C#C[C@]14O)C(=O)c1ccccc1C5=O`, for which the GI50 is 0.0329 µM; the TGI was 0.222 µM and 0.411 µM.
`COc1ccc(/C=c2/[nH]c(=O)/c(=C\c3ccc(OCc4ccccc4)cn3)[nH]c2=O)cc1` came in with a TGI of over 100 µM.
With `O[C@H]1[C@H]2[C@H](O)CCCN2C[C@H]1O`, the TGI was over 100 µM.
